From PMC7819943, “Rice protein-binding microarrays: a tool to detect cis-acting elements near promoter regions in rice”
The other results are listed elsewhere or left out.

biological target: T1, OsWOX13 (Oryza sativa, UniProt Q5QMM3 1-267); experiment: protein-binding microarray (RPBM); PBS, 2% BSA, 51.3 ng/ul salmon testes DNA, 50 uM zinc acetate, 200 nM TF, 25 C, 1 h; high values mean tight binding; conditions: protein: recombinant; tags: N-terminal polyhistidine and DsRed monomer fusion (pET32a); label: CyDye5-dUTP incorporated in the synthesized complementary strand; 3' TTTTT single-stranded linker to array surface; dsDNA, one strand shown
T1 sequence: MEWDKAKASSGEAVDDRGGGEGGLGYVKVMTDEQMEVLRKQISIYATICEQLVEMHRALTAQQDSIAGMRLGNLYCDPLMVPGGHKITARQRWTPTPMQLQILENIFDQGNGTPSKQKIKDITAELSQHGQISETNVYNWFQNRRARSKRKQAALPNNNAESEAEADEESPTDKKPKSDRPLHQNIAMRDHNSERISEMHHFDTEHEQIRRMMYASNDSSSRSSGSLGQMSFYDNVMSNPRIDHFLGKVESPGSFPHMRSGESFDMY
How it was run: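 The binding signal for each feature is its fluorescence intensity in arbitrary units. An Axon 4000B scanner was used to read a custom Agilent array that had been made double-stranded with Cy5-dUTP primer extension, blocked with 2% BSA, incubated at 25 °C for 1 h with 200 nM protein in PBS, 2% BSA, salmon testes DNA and 50 µM zinc acetate, and washed. The protein was an N-terminal polyhistidine–DsRed transcription factor fusion from E. coli BL21-CodonPlus, purified on Ni–NTA.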

Sequence	binding signal
ATCTGATGAATAGACACGAATTCCTTTTCTGCGTCACTGGCGGAGTCACCTAGTGCAG	11700 fluorescence intensity (a.u.)
ACATAATTAGGCTCAAAAGATTCGTCTCGCAAAAGTTCCTCGGAGTCACCTAGTGCAG	23000 fluorescence intensity (a.u.)
ACCATAATTTCACCCATACTCTTAAGTGCAATACTACTCCCGGAGTCACCTAGTGCAG	8560 fluorescence intensity (a.u.)
AAAACGTAATTTCGAGATCCAATCCACACCTATTGAGTAACGGAGTCACCTAGTGCAG	4010 fluorescence intensity (a.u.)
TATAAGTTAATGCTCCATCAATTTTCATTTACATCGACAGCGGAGTCACCTAGTGCAG	3340 fluorescence intensity (a.u.)
AAGAATTGATGCACCTACGATCAAAGATACTTATCTCCGTCGGAGTCACCTAGTGCAG	3290 fluorescence intensity (a.u.)
AAAATATTGATTTTCGCAGACGAAAAGAGAGCTCCATCCCCGGAGTCACCTAGTGCAG	7550 fluorescence intensity (a.u.)
ATACTGACCCTTGATTGCATACCATTTAAAAGGGAAACTTCGGAGTCACCTAGTGCAG	9800 fluorescence intensity (a.u.)
CACAAATTAAACTCTAACACTTTCTATCACGACAACATGTCGGAGTCACCTAGTGCAG	14100 fluorescence intensity (a.u.)
AGTCCTACACTCTTTGCTAATTAGCTAGTTTGCCCCAACACGGAGTCACCTAGTGCAG	7020 fluorescence intensity (a.u.)
CAAAATTGACATGTTAAGAGTAAGCCAAGATGTTTGGCAGCGGAGTCACCTAGTGCAG	31600 fluorescence intensity (a.u.)
GTTAATTGGTTAATTCCATTGTTTCGCGCTCGTGGTTTCTCGGAGTCACCTAGTGCAG	38900 fluorescence intensity (a.u.)
CCAGATTACTATAAGCTGAATTATAATAAGCCGATATAGACGGAGTCACCTAGTGCAG	3910 fluorescence intensity (a.u.)
TAAAATAATAGGTTGTTGGATTGAAATATGCCTATCAAAACGGAGTCACCTAGTGCAG	5490 fluorescence intensity (a.u.)
ATTTTCACTAATCTATACCTAATTAAATAAGAATTCGTTTCGGAGTCACCTAGTGCAG	8000 fluorescence intensity (a.u.)
AATTTAATTTAATTTATGGAGTCTCGTATTTCTTGATTTTCGGAGTCACCTAGTGCAG	4590 fluorescence intensity (a.u.)
CCAAATTTGGTAATTTAGAATTTGAACTAGCGTGAGAAAACGGAGTCACCTAGTGCAG	19800 fluorescence intensity (a.u.)
ACTGACAGTTTAGATTCTGAGTAGCTTTGGACGTCCAGCCCGGAGTCACCTAGTGCAG	8670 fluorescence intensity (a.u.)
CATTGCAATTAATCATCCATGTAAAATTTCTGACTGTTCTCGGAGTCACCTAGTGCAG	14400 fluorescence intensity (a.u.)
CAACAGTAAATTAACCAACGTTTACTGCATCCTCAGCTAACGGAGTCACCTAGTGCAG	8530 fluorescence intensity (a.u.)
TAAAACTATTTAATTACCAAACTATTCACGTGATGAGATGCGGAGTCACCTAGTGCAG	14900 fluorescence intensity (a.u.)

Sequence	binding signal
GAAATTATCTCCTCAGTTTTGACAGTATCCTTGCCGTGCGCGGAGTCACCTAGTGCAG	4370 fluorescence intensity (a.u.)
ATTGATTTAGGAATGATTTTAATGCAAAGCTATATATATTCGGAGTCACCTAGTGCAG	11900 fluorescence intensity (a.u.)
TGCAAGGACAATTAATTGTACCCCGCGTCGCGTCGCTTACCGGAGTCACCTAGTGCAG	3950 fluorescence intensity (a.u.)
CATATTAATAGCAAATGATAGCAAACAAACACATATATTACGGAGTCACCTAGTGCAG	7040 fluorescence intensity (a.u.)
GTGAATTGGCATGTCAAACTTCTCATAACAAATCAATGCTCGGAGTCACCTAGTGCAG	5130 fluorescence intensity (a.u.)
AAGTAATTTAGTCAACTCTAAAAGTAACTATGTGTGTGTGCGGAGTCACCTAGTGCAG	17300 fluorescence intensity (a.u.)
TGCCGCAATTAGAAGATGATTTCGCTAGAAGAGCTAAAAGCGGAGTCACCTAGTGCAG	8340 fluorescence intensity (a.u.)
TGAGCAAATGAGCTTAATTAGACAGAATTAGATAGAGAGACGGAGTCACCTAGTGCAG	10700 fluorescence intensity (a.u.)
ACAAATTGAGGGACCCAAAGTGAACTTATTCCAAGGAGGACGGAGTCACCTAGTGCAG	11000 fluorescence intensity (a.u.)
TGACTAACCTGCCTGATTGTCACAGGTCCCACTAGCTCTTCGGAGTCACCTAGTGCAG	4260 fluorescence intensity (a.u.)
CTAATTAATTTGTTCCCTTAATTGGCACTTTGAATCTAAGCGGAGTCACCTAGTGCAG	58300 fluorescence intensity (a.u.)
GCAGATTTACGTATTCATTGTGATAGATATATATCCCCAACGGAGTCACCTAGTGCAG	12600 fluorescence intensity (a.u.)
AATAGATGGTGATTTATTCATATTAAAGCGCATAATGGTACGGAGTCACCTAGTGCAG	7580 fluorescence intensity (a.u.)
GGATATGATTATTTAGTTAAAAGTTGCTAGAATTTCTTAGCGGAGTCACCTAGTGCAG	19000 fluorescence intensity (a.u.)
AAACGATTGATCACAATCCACGCATCGTGCCTCTCTCGCCCGGAGTCACCTAGTGCAG	14300 fluorescence intensity (a.u.)
CAATAATTTTATGTCGACGGCTAGAAAATATTAACCAAAGCGGAGTCACCTAGTGCAG	6320 fluorescence intensity (a.u.)
ATTTCAATTTTCAATTTGGACCACTCCATTATATCCATCTCGGAGTCACCTAGTGCAG	6820 fluorescence intensity (a.u.)
ATAAATTTAATGAGTTCATCATGATGATATATAGTACTTTCGGAGTCACCTAGTGCAG	22400 fluorescence intensity (a.u.)
ATATATATATATATATATATATTCATTAACATATATATAACGGAGTCACCTAGTGCAG	4810 fluorescence intensity (a.u.)
GTAAATTAGAGGTAGCAATCACGAGGGAGAGTTGGAGTTTCGGAGTCACCTAGTGCAG	11700 fluorescence intensity (a.u.)
AAAGATAGATATCCCAAATTTTAAAATTTAGTTGAACCTCCGGAGTCACCTAGTGCAG	8380 fluorescence intensity (a.u.)
